Measured values reported in the supplement of paper PMC3334620.
Over roughly 33,000 sequences, “E-score (-0.5 to 0.5)” has its median near -0.041; the highest 2% begin near 0.37. Some of the results follow.

These sequences were tested against T1, Ecm22 (UniProt Q05958) (assay: PBM E-score (8-mer binding enrichment) (E-score (-0.5 to 0.5)); higher = stronger / more preferred TF binding; most listed sequences are background and not binding sites). Details: protein concentration: 200 nM; construct: GST-full length.
T1 sequence: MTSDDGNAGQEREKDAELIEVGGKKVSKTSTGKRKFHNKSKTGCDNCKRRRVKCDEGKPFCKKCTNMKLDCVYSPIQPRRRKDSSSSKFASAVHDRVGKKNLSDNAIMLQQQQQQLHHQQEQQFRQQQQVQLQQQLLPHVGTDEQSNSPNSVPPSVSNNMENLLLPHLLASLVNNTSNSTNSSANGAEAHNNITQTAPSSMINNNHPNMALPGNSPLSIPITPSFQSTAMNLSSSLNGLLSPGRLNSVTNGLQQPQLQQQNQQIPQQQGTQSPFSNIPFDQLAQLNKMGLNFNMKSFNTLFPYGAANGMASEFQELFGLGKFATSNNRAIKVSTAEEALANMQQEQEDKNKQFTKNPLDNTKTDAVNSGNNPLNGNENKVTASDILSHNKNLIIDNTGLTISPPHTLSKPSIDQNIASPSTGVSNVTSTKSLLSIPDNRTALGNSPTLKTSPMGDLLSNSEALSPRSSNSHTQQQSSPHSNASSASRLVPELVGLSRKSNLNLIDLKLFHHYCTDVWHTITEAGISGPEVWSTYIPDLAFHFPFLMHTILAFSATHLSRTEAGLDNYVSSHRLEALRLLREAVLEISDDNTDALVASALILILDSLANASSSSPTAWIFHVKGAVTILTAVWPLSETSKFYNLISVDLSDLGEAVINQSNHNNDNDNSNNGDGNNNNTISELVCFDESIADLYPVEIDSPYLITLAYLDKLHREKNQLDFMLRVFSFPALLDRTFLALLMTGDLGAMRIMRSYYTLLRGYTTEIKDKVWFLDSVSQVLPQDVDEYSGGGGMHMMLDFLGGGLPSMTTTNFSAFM
In short: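 Using PURExpress in vitro transcription/translation, GST-tagged yeast transcription factors were made in full-length or DNA-binding-domain form. These were applied at about 100-200 nM to double-stranded universal all-10-mer Agilent arrays, and bound protein was detected with fluorescent anti-GST. Scans were normalised with masliner before the Universal PBM Analysis Suite assigned E-scores to ungapped eight-base words pooled with their reverse complements.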

Sequence	PBM E-score
ACTCAAGT	-0.0385
AACCTATG	-0.187
AGCTTAAA	0.0659
CGGTAAGC	0.0307
CCGCAAGC	-0.185
GTCGCGAC	0.293
CACGTGCA	-0.123
CTTAGCAA	0.00503
GAAATTCA	0.0712
ACTGATTC	-0.126
AGAACATC	-0.212
ACAAAGGC	0.0895
AATGTGCG	0.222
AACGTGCC	-0.0231
CTAACTTC	0.0104
GGCACTGA	0.0137
AGCTTCTG	-0.0971
GGACCTCA	-0.206
GCTTCAAA	-0.0223
ATGAGGGC	-0.125
GTGAGCAA	-0.00052
GCGATGCC	0.216
GAGTCAGC	-0.191
CCTAGGAC	-0.265
CCCCTCAC	-0.215

Sequence	PBM E-score
GCTTCTGA	0.0041
GGAACTTA	0.0614
AGACATGA	-0.176
AAGAGCGT	0.0857
GCTACGCA	0.182
ATTCACAC	-0.0769
AAGATAGG	-0.191
AGCATATG	-0.135
AAGGCCCG	0.0655
ATTGGGGC	-0.307
ACAAATCG	-0.119
ATCAACAG	-0.198
AGATAGAA	-0.206
CTTATCGA	0.00954
TAAACCCA	0.0155
CATGAGGC	-0.23
GTCTATAA	0.0932
ACACTATA	-0.122
AGCTCCAT	-0.161
GGTATATA	0.168
CTCCGTGC	-0.0935
ACAGGGAC	0.0524
TGGGAGAA	-0.323
ATCAGCCG	0.0208
ACATCCGC	0.0834

Sequence	PBM E-score
ACAGGAGA	0.0857
CATCCGAC	0.0316
ACAGGATG	-0.0609
ACTCCCAG	-0.149
ATAAGGAA	-0.0638
GGGATTAA	-0.0253
AGAAATCT	0.0637
GACATGCC	-0.139
GTCATCTA	0.0382
AGCCCTAC	0.0141
GTGTTGCA	-0.0518
CTATTAAC	0.107
CAATAGCG	-0.0948
CGCTGTAA	-0.0186
ACGAACAT	0.386
ACACATTG	-0.211
TTATACAA	0.117
ATTGACTG	-0.0411
ATTTTCGG	0.176
CATCTCCA	-0.238
CCGGGACG	-0.345
ACTCCCAT	-0.132
GGCCTCCC	-0.0791
CTTCTGGA	-0.24
AGAATTCA	-0.0502

Sequence	PBM E-score
TGCTTCCA	-0.219
AGGGCCAG	-0.311
ACTGCAGT	-0.178
ACGCGAGG	0.295
AAGCGGTA	0.145
CCTCTATC	-0.0639
CTCATCAG	-0.0824
GCTTCACC	-0.0546
AGGATTTA	-0.0133
AGGACCGA	0.242
CAGCGTGA	0.0291
TCTCCCAA	-0.297
ATGTTTAG	0.0546
AGTGTCAT	-0.0584
AAGATAAA	-0.0228
AGTGTGGA	-0.298
ATACCCAC	-0.0951
ATTCGACG	0.0856
TATTCAAA	0.0408
GACGAAAC	0.287
ACATTCCC	-0.0494
ACAGATGT	-0.102
GCGCGCGA	0.217
AGTCGACT	-0.0931
ACTTGGAG	-0.166

Sequence	PBM E-score
AGGTTTGC	-0.153
ACTATGGC	-0.187
GGTGCGCA	0.07
CCGCCGCC	-0.097
AATTGGAG	-0.133
GCAAGCAA	0.0313
CAAATTTA	0.00623
CATGCGAC	0.178
GAGCACAA	-0.016
ACTCGTCC	-0.139
AACGGTAG	0.188
GCACTGGC	-0.187
ATGCTTAC	-0.13
CTTCGAAG	-0.0135
GATCGTGC	0.0469
CACCAGAC	0.0559
GAAAAGCA	-0.0156
CCCCTACA	-0.337
ACGCAAAA	0.156
AGTTTCAT	0.138
GCAGCATA	-0.167
CCACCGCA	0.0119
TACATTCA	-0.185
TACAGACA	0.145
CCCGCGCA	0.0386

Sequence	PBM E-score
TGACGACA	0.123
CCTTCCGA	-0.0653
GGTTTTAC	0.109
ATCTTGTG	-0.218
AAGGAAGT	-0.174
CATAACCG	0.132
CCCCGGCC	-0.306
ATCCTCAG	-0.0968
CGCCTCGA	0.0979
AACAAAGC	0.0372
GGATCTTA	0.158
ATCATAAC	0.00471
CTAGAAGC	-0.168
CCAGTAGA	-0.171
AGCATTCG	0.061
ACCTTAGA	-0.155
AGAAGCTG	-0.0646
ACAGATTA	-0.0874
AGGATGCC	-0.175
AGTAGAAC	-0.0192
CTATTAAA	-0.0427
AATTAGTG	-0.0596
CCTGGCAC	-0.217
GAATCCCA	-0.0546
TCGTTCAA	0.448

Sequence	PBM E-score
AGTATAAC	0.0917
CGGAGTCA	-0.0287
CAGGGCCG	-0.0559
CAACCCTC	-0.05
ATTGCTGC	-0.0302
CCCGGCTA	-0.11
GGTTAACA	-0.0609
CGCGCGGC	0.225
CAAAAAGC	-0.0578
ATCTTAAC	0.138
AGGTTTAG	-0.0456
AACAATTC	-0.301
ATTGTCCA	-0.096
TATCCCGA	0.0603
CAGGTCTC	-0.249
GACTGATA	-0.209
CGGTACAC	0.0064
ACTAACGC	0.0181
AACAAGAC	-0.0162
AGCTCCGC	-0.0692
CTGATGTC	-0.0878
ACTGAACC	0.0101
